First the molecules themselves.
B1: PhoQ; a variant is named by its letters at X, in order, P23837 (parent)
chain: MKKLLRLFFPLSLRVRFLLATAAVVLVLSLAYGMVALIGYSVSFDKTTFRLLRGESNLFYTLAKWENNKLHVELPENIDKQSPTMTLIYDENGQLLWAQRDVPWLMKMIQPDWLKSNGFHEIEADVNDTSLLLSGDHSIQQQLQEVREDDDDAEMTHSVAVNVYPATSRMPKLTIVVVDTIPVELKSSYMVWSWFIYVLSANLLLVIPLLWVAAWWSLRPIEALAKEVRELEEHNRELLNPATTRELTSLVRNLNRLLKSERERYDKYRTTLTDLTHSLKTPLXXLQXXLRSLRSEKMSVSDAEPVMLEQISRISQQIGYYLHRASMRGGTLLSRELHPVAPLLDNLTSALNKVYQRKGVNISLDISPEISFVGEQNDFVEVMGNVLDNACKYCLEFVEISARQTDEHLYIVVEDDGPGIPLSKREVIFDRGQRVDTLRPGQGVGLAVAREITEQYEGKIVAGESMLGGARMEVIFGRQHSAPKDE

This is one part of the list. Where only a bound is given, the exact number is not on record here.

In the assay the parent is B1. As to the kind of experiment: enrichment ratio after two sorts for PhoP signalling (ratio (wild type AVST 3.29)); higher = more functional. As to conditions: with PhoP (E. coli).
Consider SIYA, for which the enrichment ratio is 0.309.

IKNQ: the enrichment ratio is no more than 0.25.

LGEL: the enrichment ratio is no more than 0.25.

For the variant FHNG, the enrichment ratio came to 0.618.

On to LMSD, for which the enrichment ratio was no more than 0.25.

Consider DMIR, for which the enrichment ratio was no more than 0.25.

Turning to HSLK, the enrichment ratio was no more than 0.25.

With QPIS, the enrichment ratio was no more than 0.25.

For CDYS, the enrichment ratio is no more than 0.25.

For DGAN, the enrichment ratio is no more than 0.25.

Consider ELYC, for which the enrichment ratio was no more than 0.25.

Regarding KKIG, the enrichment ratio was no more than 0.25.

With PRSP, the enrichment ratio was no more than 0.25.

With RGVW, the enrichment ratio is no more than 0.25.

RDNM: the enrichment ratio was no more than 0.25.

On to EIYK, for which the enrichment ratio is no more than 0.25.

With WRAL, the enrichment ratio is no more than 0.25.

PYHT: the enrichment ratio is no more than 0.25.

In the case of QAIL, the enrichment ratio was no more than 0.25.

On to TCPK, for which the enrichment ratio is no more than 0.25.

As for KDQY, the enrichment ratio was no more than 0.25.

Take YYGA: the enrichment ratio is no more than 0.25.

As for YATT, the enrichment ratio is no more than 0.25.

For MRPH, the enrichment ratio was no more than 0.25.

Consider QKTS, for which the enrichment ratio was no more than 0.25.

Turning to FIKQ, the enrichment ratio is no more than 0.25.

For FPEV, the enrichment ratio was no more than 0.25.

For the variant FYDT, the enrichment ratio was no more than 0.25.

Regarding TTPR, the enrichment ratio was no more than 0.25.

Turning to FVCT, the enrichment ratio is no more than 0.25.

With WFAD, the enrichment ratio was no more than 0.25.

As to NDCC, the enrichment ratio is no more than 0.25.

For RCMK, the enrichment ratio was no more than 0.25.

Regarding MLTD, the enrichment ratio is no more than 0.25.

With IDSM, the enrichment ratio is no more than 0.25.

Turning to PMNG, the enrichment ratio was no more than 0.25.

Turning to KPIL, the enrichment ratio was no more than 0.25.

For PIQQ, the enrichment ratio was no more than 0.25.

With AKMW, the enrichment ratio is no more than 0.25.

As for RKVN, the enrichment ratio is no more than 0.25.

As for YHGN, the enrichment ratio was no more than 0.25.

Regarding QMPL, the enrichment ratio is no more than 0.25.

With LCHS, the enrichment ratio is no more than 0.25.

On to VTCV, for which the enrichment ratio was no more than 0.25.

Consider LFHD, for which the enrichment ratio was no more than 0.25.

Take QKHF: the enrichment ratio is no more than 0.25.

Take WPRP: the enrichment ratio is no more than 0.25.

GCSK: the enrichment ratio was no more than 0.25.

In the case of VSMI, the enrichment ratio came to 7.55.

Consider HPWD, for which the enrichment ratio is no more than 0.25.

For the variant FRVV, the enrichment ratio was no more than 0.25.

In the case of PMEN, the enrichment ratio was no more than 0.25.

Regarding KNVI, the enrichment ratio is no more than 0.25.

With NAMI, the enrichment ratio was no more than 0.25.

Consider SVCY, for which the enrichment ratio was 6.53.

As to GHMV, the enrichment ratio is no more than 0.25.

For the variant VCGW, the enrichment ratio is no more than 0.25.

For WSMF, the enrichment ratio is no more than 0.25.

In the case of WLGA, the enrichment ratio was no more than 0.25.

For LITI, the enrichment ratio is no more than 0.25.

With DICF, the enrichment ratio is no more than 0.25.

In the case of RPFN, the enrichment ratio is no more than 0.25.

SGRQ: the enrichment ratio was no more than 0.25.

With HRYQ, the enrichment ratio was no more than 0.25.

For the variant AKRG, the enrichment ratio is no more than 0.25.

On to FQPL, for which the enrichment ratio is no more than 0.25.

In the case of YMMQ, the enrichment ratio is no more than 0.25.

Turning to HCAM, the enrichment ratio was no more than 0.25.

In the case of PWCK, the enrichment ratio is no more than 0.25.

As for IKLE, the enrichment ratio is no more than 0.25.

For the variant TFAI, the enrichment ratio turned out to be 5.05.

Regarding SQGV, the enrichment ratio stood at 7.29.

On to VFCA, for which the enrichment ratio is no more than 0.25.

For HDSA, the enrichment ratio is no more than 0.25.

For the variant RDYA, the enrichment ratio was no more than 0.25.

Take GFGP: the enrichment ratio is no more than 0.25.

As for NIHG, the enrichment ratio was no more than 0.25.

As for WMYS, the enrichment ratio is no more than 0.25.

VWQI: the enrichment ratio is no more than 0.25.

Consider LSNK, for which the enrichment ratio is no more than 0.25.

With EGGL, the enrichment ratio was no more than 0.25.

With NQRL, the enrichment ratio was no more than 0.25.

As to MCPF, the enrichment ratio was no more than 0.25.

For HREM, the enrichment ratio was no more than 0.25.

For LAGK, the enrichment ratio is no more than 0.25.

Regarding VWKT, the enrichment ratio was no more than 0.25.

As to RCSY, the enrichment ratio was no more than 0.25.

Regarding QLLY, the enrichment ratio was no more than 0.25.

For ASGD, the enrichment ratio is no more than 0.25.

TWGV: the enrichment ratio was no more than 0.25.

For PADW, the enrichment ratio is no more than 0.25.

Consider ADAP, for which the enrichment ratio was no more than 0.25.

Turning to TISY, the enrichment ratio was determined as 3.76.

EPLT: the enrichment ratio was no more than 0.25.

As for PGMF, the enrichment ratio is no more than 0.25.

Take FYHF: the enrichment ratio was no more than 0.25.

VLWF: the enrichment ratio is no more than 0.25.

For AGMT, the enrichment ratio was 1.71.

With PYPG, the enrichment ratio is no more than 0.25.

In the case of YRPM, the enrichment ratio is no more than 0.25.

In the case of VSVC, the enrichment ratio was no more than 0.25.

For YVID, the enrichment ratio was no more than 0.25.

Consider LSGD, for which the enrichment ratio was no more than 0.25.

Regarding IKCM, the enrichment ratio was no more than 0.25.

As for TEVR, the enrichment ratio is no more than 0.25.

As to EICG, the enrichment ratio was no more than 0.25.

With VYMR, the enrichment ratio is no more than 0.25.

With MSIH, the enrichment ratio is no more than 0.25.

Take AIAM: the enrichment ratio was found to be 6.08.

With GRFD, the enrichment ratio was no more than 0.25.

As to DLDA, the enrichment ratio is no more than 0.25.

On to NFHS, for which the enrichment ratio was no more than 0.25.

Regarding GSDW, the enrichment ratio was no more than 0.25.

In the case of YGMK, the enrichment ratio is no more than 0.25.

Consider AVIF, for which the enrichment ratio worked out at 1.01.

For the variant KEFS, the enrichment ratio was no more than 0.25.

Consider GGCF, for which the enrichment ratio was 0.283.

For the variant MALE, the enrichment ratio came out at 10.7.

As to DYNC, the enrichment ratio is no more than 0.25.

As for YMDW, the enrichment ratio was no more than 0.25.

For SSEY, the enrichment ratio was no more than 0.25.

As for IKLA, the enrichment ratio is no more than 0.25.

As to FVSF, the enrichment ratio is no more than 0.25.

As to LYHH, the enrichment ratio was no more than 0.25.

Take LRSV: the enrichment ratio is no more than 0.25.

For the variant RDCH, the enrichment ratio was no more than 0.25.

As to GVCM, the enrichment ratio was 3.45.

Regarding AGNC, the enrichment ratio is no more than 0.25.

With GWIR, the enrichment ratio was no more than 0.25.

Turning to ETAL, the enrichment ratio was no more than 0.25.

Regarding ISDW, the enrichment ratio is no more than 0.25.

Regarding ESTL, the enrichment ratio is no more than 0.25.

As to FRYV, the enrichment ratio was no more than 0.25.

As to YWWP, the enrichment ratio was no more than 0.25.

Turning to NSVE, the enrichment ratio was no more than 0.25.

Regarding ELMA, the enrichment ratio was no more than 0.25.

In the case of ERLY, the enrichment ratio is no more than 0.25.

Take VVTK: the enrichment ratio was no more than 0.25.

As to RMMM, the enrichment ratio is no more than 0.25.

IQRA: the enrichment ratio was no more than 0.25.

In the case of VTPR, the enrichment ratio was no more than 0.25.

With VVSG, the enrichment ratio is no more than 0.25.

For RKEV, the enrichment ratio was no more than 0.25.

On to DDCE, for which the enrichment ratio was no more than 0.25.

On to AFWE, for which the enrichment ratio was no more than 0.25.

Turning to SIQV, the enrichment ratio turned out to be 6.42.

On to DMMT, for which the enrichment ratio was no more than 0.25.

As for IMFK, the enrichment ratio is no more than 0.25.

Turning to TKDR, the enrichment ratio was no more than 0.25.

Consider FNVW, for which the enrichment ratio is no more than 0.25.

For the variant KAAV, the enrichment ratio was no more than 0.25.

As for RLLQ, the enrichment ratio is 0.575.

Consider EGRR, for which the enrichment ratio is no more than 0.25.

The values are drawn from a collection of fitness landscapes (doi:10.1126/science.1257360).
